Assay results as given in article PMC4336329 (PLoS ONE, 2015).
Screen size: about 310,000 compounds; about 2,200 (0.71%) showed an effect of 50% or more. Effects have a minus sign here. Some of the results follow.

Biological target: human ether-à-go-go-related gene (hERG) potassium channel (human, UniProt Q12809)
Test: primary screen, population patch clamp on CHO cells stably expressing hERG

human ether-à-go-go-related gene (hERG) potassium channel, sequence (Q12809 whole entry, looked up): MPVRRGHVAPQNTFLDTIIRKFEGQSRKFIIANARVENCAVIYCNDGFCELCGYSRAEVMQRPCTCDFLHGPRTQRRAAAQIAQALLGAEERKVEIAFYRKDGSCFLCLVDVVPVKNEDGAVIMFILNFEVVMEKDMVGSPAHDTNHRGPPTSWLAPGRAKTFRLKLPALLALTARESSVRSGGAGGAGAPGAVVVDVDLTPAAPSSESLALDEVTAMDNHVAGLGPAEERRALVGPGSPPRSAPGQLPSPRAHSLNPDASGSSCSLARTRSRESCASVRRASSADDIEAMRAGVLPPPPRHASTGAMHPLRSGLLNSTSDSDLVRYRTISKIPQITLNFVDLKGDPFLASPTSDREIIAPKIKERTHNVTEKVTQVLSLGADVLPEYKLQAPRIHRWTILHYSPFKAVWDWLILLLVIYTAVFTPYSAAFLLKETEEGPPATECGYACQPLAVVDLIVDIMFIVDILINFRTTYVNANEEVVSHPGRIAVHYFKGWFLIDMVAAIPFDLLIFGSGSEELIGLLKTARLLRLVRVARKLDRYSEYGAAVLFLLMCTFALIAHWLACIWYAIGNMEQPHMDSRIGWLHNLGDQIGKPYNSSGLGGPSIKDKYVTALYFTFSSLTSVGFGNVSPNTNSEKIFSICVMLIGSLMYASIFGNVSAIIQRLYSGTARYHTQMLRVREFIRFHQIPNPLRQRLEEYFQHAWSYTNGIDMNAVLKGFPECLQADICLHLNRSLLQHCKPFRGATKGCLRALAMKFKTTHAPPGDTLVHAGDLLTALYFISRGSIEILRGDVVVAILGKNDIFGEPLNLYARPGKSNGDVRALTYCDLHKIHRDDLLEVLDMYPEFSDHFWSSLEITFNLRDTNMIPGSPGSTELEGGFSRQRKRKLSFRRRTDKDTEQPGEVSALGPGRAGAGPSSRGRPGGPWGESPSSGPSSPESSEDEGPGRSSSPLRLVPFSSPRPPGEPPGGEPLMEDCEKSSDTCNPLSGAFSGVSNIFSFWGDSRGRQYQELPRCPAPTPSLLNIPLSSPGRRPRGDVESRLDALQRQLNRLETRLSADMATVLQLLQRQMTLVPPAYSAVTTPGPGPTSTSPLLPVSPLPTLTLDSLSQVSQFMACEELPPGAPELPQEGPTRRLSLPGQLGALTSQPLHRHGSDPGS

| Compound | hERG current change (%, negative = inhibition) at 1uM |
| --- | --- |
| CCN(CC(=O)NCc1cccs1)S(=O)(=O)c1ccc(C(C)C)cc1 | -2.78% |
| Cc1cccc(NC(=O)CSc2nc3ccccc3c3nc(CCc4c(C)n[nH]c4C)nn23)c1 | 10.7% |
| Cc1nnc(SCC(=O)N/N=C/c2ccc(-c3ccc(C)c(Cl)c3)o2)s1 | 1.3% |
| Cc1ccc(-n2c(SCC(=O)NCCN3C(=O)CSC3=O)nnc2-c2cccc(C)c2)cc1 | 8.25% |
| Cc1cccc(-n2nc3c(c2NC(=O)CCC2CCCCC2)CS(=O)C3)c1C (stereo not drawn) | -5.52% |
| O=C(CSCc1ccc(Cl)cc1Cl)Nc1ccccc1C(=O)Nc1ccc(C(=O)O)cc1 | 11.5% |
| COc1cccc(-c2nc(CS(=O)(=O)CC(=O)NC3CCC(C)CC3)c(C)o2)c1 (stereo not drawn) | -2.03% |
| COC(=O)CNC(=O)COC(=O)c1cc(SC)ccc1Cl | 12.3% |
| Cc1ccc2c(c1)N(C(=O)CCC(=O)NC1CCCCCC1)CC(C)O2 (stereo not drawn) | 6.39% |
| CCOC(=O)c1nc(S(C)(=O)=O)ncc1Cl | 11.6% |
| Cc1cccc(NC(=O)C2CCN(S(=O)(=O)c3ccc4c(c3)OCCCO4)CC2)n1 | 8.88% |
| O=C(Nc1nc2nc(-c3ccccc3)cc(-c3ccccc3)n2n1)c1ccco1 | -0.705% |
| Br.CCSC1=NCN(CCCC(=O)O)CN1 | 9.63% |
| CCC1Oc2ccc(C)cc2N(CC(=O)NCC2CCCO2)C1=O (stereo not drawn) | 9.88% |
| CCCCn1c(N)c(N(C)C(=O)c2ccccc2Oc2ccccc2)c(=O)[nH]c1=O | 17.5% |
| NS(=O)(=O)c1ccc(CCNC(=O)CNC(=O)Cc2cccc3ccccc23)cc1 | 17% |
| CCCCn1c(N)c(N(CCOC)C(=O)COC(=O)CCOc2ccccc2C)c(=O)[nH]c1=O | 16.5% |
| CCCCOc1c(Br)cc(/C=C2\N=C(C)OC2=O)cc1OCC | 8.93% |
| CCOc1ccc(N(CC(=O)Nc2cccc(OC)c2)S(C)(=O)=O)cc1 | 9.02% |
| O=C(O)c1ccccc1P(=O)(c1ccccc1)c1ccccc1 | 16.1% |
| COc1ccc(N2CCN(C(=O)c3ccc(CNS(=O)(=O)c4cc(C)ccc4C)cc3)CC2)cc1 | 0.552% |
| COc1ccc(-c2cc(OC(=O)c3ccc(F)cc3)c3c(C)oc(C)c3c(=O)c2)cc1 | 11.3% |

| Compound | hERG current change (%, negative = inhibition) at 1uM |
| --- | --- |
| Cc1onc(-c2c(F)cccc2Cl)c1C(=O)NCCCN1CCOCC1 | -3.84% |
| O=C(CCCCC(=O)NCCc1ccccc1)NCCc1ccccc1 | 13.6% |
| NS(=O)(=O)c1ccc(CCNC(=O)NC23CC4CC(CC(C4)C2)C3)cc1 | 6.76% |
| CCNC(=S)Nc1ccc(-c2nc3ccccc3[nH]2)cc1 | 4.42% |
| COc1ccc(OC)c(Nc2nc(-c3cccs3)cs2)c1 | 12.3% |
| CCSC(=S)Nc1c(C)n(C)n(-c2ccccc2)c1=O | 13% |
| COc1ccc(OCc2nn3c(-c4ccco4)nnc3s2)cc1 | -11.1% |
| CCNC(=O)C(C)Sc1ccc(Cl)cc1 (stereo not drawn) | 5.45% |
| N/C(=N\c1nc(CSc2nc3ccccc3s2)cc(=O)[nH]1)Nc1ccc(F)cc1 | 10.8% |
| Cc1ccnc(N2C(=O)OC(C)(C)C2(C)O)c1 (stereo not drawn) | -0.922% |
| COc1ccc(NC(=O)NC2CCCc3ccccc32)cc1OC (stereo not drawn) | 11.1% |
| O=C1CCc2cc(S(=O)(=O)N3CCC(C(=O)NCc4ccccn4)CC3)ccc2N1 | 15.8% |
| CCCS(=O)(=O)c1c(S(=O)(=O)CCC)c2c3ccccc3ccn2c1C(N)=O | 2.06% |
| Cc1ccc2c(c1)sc1ncc(NC(=O)c3ccc(F)cc3)c(=O)n12 | 11.7% |
| NC(=NCCc1c[nH]c2ccccc12)NS(=O)(=O)c1ccc2ccccc2c1 | 8.94% |
| COCc1cc(=O)[nH]c(SCC(=O)N2CCOCC2)n1 | 14.4% |
| COc1cccc(CN2CCNC(=O)C2CC(=O)NCCN2CCOCC2)c1OC (stereo not drawn) | 7.74% |
| COc1ccc(C(=O)N=c2sc3c(C)ccc(OC)c3n2C)cc1 | 9.31% |
| CO/N=C(\C)c1ncc(C(F)(F)F)cc1N1CCOCC1 | 19% |
| O=C(Nc1ccc(Cl)c(C(F)(F)F)c1)C1CCCN(S(=O)(=O)c2cnc[nH]2)C1 (stereo not drawn) | -11.1% |
| Cc1cc(NC(=O)c2noc3c2CCCC3)n(-c2ccccc2)n1 | -13.5% |
| O=C(Nc1cccnc1)c1ccc(Cl)cc1[N+](=O)[O-] | 10.1% |

| Compound | hERG current change (%, negative = inhibition) at 1uM |
| --- | --- |
| O=C(Oc1c(-c2ccco2)oc2ccccc2c1=O)c1cccnc1 | 16.2% |
| COc1cc2c(cc1NC(=O)CSc1ccc(C)cc1)oc1ccccc12 | -0.95% |
| Cc1ccc(C)c(C(C)NC(=O)CC#N)c1 (stereo not drawn) | 11.3% |
| COc1ccc(Cc2nnc(SCC(=O)Nc3ccc(N4CCOCC4)cc3)o2)cc1 | 14.1% |
| CCOC(=O)C1CCN(C(=O)COC(=O)c2ccccc2C(=O)c2ccc(Cl)cc2)CC1 | 0.212% |
| Cc1csc(=NC(=O)c2ccccc2)n1Cc1ccco1 | 5.65% |
| Nc1nc2ncc(CNc3ccc(C(=O)N[C@@H](CCC(=O)O)C(=O)O)cc3)nc2c(=O)[nH]1 | 10.7% |
| CCc1nc(C)cc(N)c1OCc1ccccc1.Cl.O | -13.8% |
| CCN(Cc1ccccc1)S(=O)(=O)c1c(C(=O)N2CCCC2)c(C)n(C)c1C | -4.63% |
| O=C(COc1ccc(-c2ccccc2)cc1)N1CCN(C(=O)c2cccs2)CC1 | -8.55% |
| CC(/C=N/NC(=O)c1c(Br)cnn1C)=C\c1ccccc1 | 3.59% |
| COc1cc(C(=O)NC(=S)N(C)Cc2ccccc2)cc(OC)c1OC | 6.94% |
| C/C(=N/OC(=O)c1c(F)cccc1F)c1nccs1 | 7.45% |
| NCCc1nnc(SCC(=O)Nc2ccc(Br)cc2)o1 | 11.4% |
| Cc1cccc(OCCCn2c(=O)oc3ccc(C)cc32)c1 | 17.9% |
| O=c1[nH]c2cccc(Cl)c2n(CCNc2ncc(C(F)(F)F)cc2Cl)c1=O | 4.52% |
| COc1ccc(NC(=O)Cn2c(-c3ccc(OC)cc3)cn(-c3ccc(C)cc3)c2=O)cc1 | 14.7% |
| O=C(c1ccoc1)N1CCC2(CC1)Oc1ccc(Cl)cc1C(=O)C21CC(c2ccccc2)=NO1 (stereo not drawn) | 10% |
| Cc1ccc(-c2cc(-c3ccc4c(c3)OCO4)c(C#N)c(N)n2)o1 | 4.17% |
| c1ccc(-c2csc3ncnc(NCCCN4CCOCC4)c23)cc1 | 2.19% |
| O=c1c2ccccc2nc(-c2ccc([N+](=O)[O-])cc2)n1-c1ccccc1 | 4.72% |
| C=CCC1c2cccc(C(=O)O)c2C(=O)N1c1cccc(OC)c1 (stereo not drawn) | 11.5% |

| Compound | hERG current change (%, negative = inhibition) at 1uM |
| --- | --- |
| O=c1cc(-c2ccccc2)[nH]c2ccc(F)cc12 | 12.7% |
| COc1ccc(-n2nc(C(=O)NCC(=O)NCc3ccc(F)cc3)c3ccccc3c2=O)cc1 | 19.1% |
| Cc1nnc(SCC(=O)NC2CC2)n1-c1ccccc1 | 14.5% |
| c1coc(CN2CN=C(Nc3nc4ccccc4s3)NC2)c1 | 22.6% |
| Cc1ccc(NC(=O)c2sccc2C)nc1 | 16.3% |
| Cc1cccc2cc(COC(=O)COc3ccccc3)c(=O)[nH]c12 | 5.68% |
| COc1cc(CN2CCN(CCCc3ccccc3)CC2CCO)cc(OC)c1 (stereo not drawn) | -46.8% |
| CNS(=O)(=O)Cc1ccc2[nH]cc(CCN(C)C)c2c1.O=C(O)CCC(=O)O | 3.77% |
| O=c1[nH]c(=S)n(-c2ccccc2)c(O)c1/C=N/N1CCCCC1c1cccnc1 (stereo not drawn) | -3.28% |
| CCn1nc(C)c(NC(=O)/C=C/c2ccc(OC)c(COc3ccc(Cl)cc3Br)c2)c1C | 5.77% |
| Cn1cc([C@@H]2C[C@H]3CN(Cc4cccc(Cl)c4)C(=O)[C@]34CCCN24)c(-c2ccccc2)n1 | -9.8% |
| CCCS(=O)(=O)n1nc(-c2ccc(C)cc2)cc1N | 17.4% |
| Cc1ccc(C)c2[nH]c(=O)c(CN(CC3CCCO3)C(=S)NCc3ccco3)cc12 (stereo not drawn) | 4.11% |
| COc1cccc(NC(=O)c2cccc(N3C(=O)C4CCC(C)CC4C3=O)c2)c1 (stereo not drawn) | 4.83% |
| CCCCCNC(=O)[C@@H]1CSC2c3ccccc3C(=O)N21 (stereo partly drawn) | 14% |
| Cc1nc(SC2CCOC2=O)c2c(C)c(C)sc2n1 (stereo not drawn) | 4.94% |
| Cc1ccc(NC(=O)OCCN2CCN(Cc3ccccc3)CCC2=O)cc1 | 2.87% |
| Cc1ccc2[nH]c(=S)n(-c3cccnc3)c(=O)c2c1 | 10.3% |
| CCOC(=O)c1c(C)oc2c1cc(NS(=O)(=O)c1ccc(C(=O)O)cc1)c1ccccc12 | -5.96% |
| CCOc1ccc(C(=O)/C=C/c2cn(CN3CCN(C)CC3)c3ccccc23)cc1 | -4.61% |
| Cc1ccc(OC(=O)c2ccc(Cl)c([N+](=O)[O-])c2)cn1 | 15.6% |
